Reference: patent US20260176275A1, “VINYLPHOSPHONIC ACID-MODIFIED MRNA CAP ANALOG, METHOD FOR PREPARING SAME, AND USE THEREOF” (Jiangsu Synthgene Biotechnology Co., Ltd., priority 2022, published 2026)
The name of at least one read-out is uncertain.

System: 293T cells
Assay: mRNA translation efficiency: eGFP mRNA capped with the analogs transfected into 293T cells, GFP fluorescence
Assay type: cell-based
Details: eGFP mRNA in 293T cells, 24 h after transfection
Procedure: Test method: In-vitro transcription was initiated with the cap analogs of Examples 1-7, compounds 10-13, 16, 17, 25, 31 and 34, and Comparative Example 1 by using an eGFP coding sequence as a DNA template. The different mRNA products obtained were then transfected into 293T cells. The 293T cells were plated (onto a 24-well plate) at (0.5-1)×10^5 cells/well. During the transfection, in general, the cell density was preferably 60%-80%; […] was transfected into each well, and the Lipofectamine MessengerMAX Transfection Reagent (Invitrogen) was selected as the transfection reagent and used according to its usage instructions. The transfected cells were placed in an incubator at 37° C. with CO2. After transfection for 4-6 h, the medium was replaced with a fresh complete medium. After incubation in the incubator at 37° C. with CO2 for 24 h, the fluorescence intensity of GFPs in the cells was observed through a fluorescence microscope, and the fluorescence intensity ratios of Examples 1-7 and compounds 10-13, 16, 17, 25, 31 and 34 relative to Comparative Example 1 were calculated based on the fluorescence intensities.

Point of comparison: `COC1C(OP(=O)(O)OC[C@H]2O[C@@H](n3cnc4c(=O)[nH]c(N)nc43)C(O)C2O)[C@@H](COP(=O)(O)OP(=O)(O)OP(=O)(O)/C=C/[C@H]2O[C@@H](n3c[n+](C)c4c(=O)[nH]c(N)nc43)C(F)C2O)O[C@H]1n1cnc2c(N)ncnc21` (some centres unmarked) [Compound 16], “Cell fluorescence relative intensity (relative to Comparative Example 1)” value 2.49. Against it:
- COC1C(OP(=O)(O)OC[C@H]2O[C@@H](n3cnc4c(=O)[nH]c(N)nc43)C(O)C2O)[C@@H](COP(=O)(O)OP(=O)(O)OP(=O)(O)/C=C/[C@H]2O[C@@H](n3c[n+](C)c4c(=O)[nH]c(N)nc43)C(O)C2O)O[C@H]1n1cnc2c(N)ncnc21 (some centres unmarked) [Example 2] — lower, 2.44
- COC1C(OP(=O)(O)OC[C@H]2O[C@@H](n3cnc4c(=O)[nH]c(N)nc43)C(O)C2O)[C@@H](/C=C/P(=O)(O)OP(=O)(O)OP(=O)(O)OC[C@H]2O[C@@H](n3c[n+](C)c4c(=O)[nH]c(N)nc43)C(O)C2O)O[C@H]1n1cnc2c(N)ncnc21 (some centres unmarked) [Example 3] — lower, 2.31
- COCCOC1C(O)[C@H](n2c[n+](C)c3c(=O)[nH]c(N)nc32)O[C@@H]1/C=C/P(=O)(O)OP(=O)(O)OP(=O)(O)OC[C@H]1O[C@@H](n2cnc3c(N)ncnc32)C(OC)C1OP(=O)(O)OC[C@H]1O[C@@H](n2cnc3c(=O)[nH]c(N)nc32)C(O)C1O (some centres unmarked) [Compound 10] — higher, 3.12
- COC1[C@@H](OP(=O)(O)/C=C/[C@H]2O[C@@H](n3cnc4c(=O)[nH]c(N)nc43)C(O)[C@H]2O)[C@@H](/C=C\P(=O)(O)OP(=O)(O)OP(=O)(O)OC[C@H]2O[C@@H](n3c[n+](C)c4c(=O)[nH]c(N)nc43)[C@@H](O)C2O)O[C@H]1n1cnc2c(N)ncnc21 (some centres unmarked) [Example 6] — lower, 1.12
- COCC1C(O)[C@H](n2c[n+](C)c3c(=O)[nH]c(N)nc32)O[C@@H]1/C=C/P(=O)(O)OP(=O)(O)OP(=O)(O)OC[C@H]1O[C@@H](n2cnc3c(N)ncnc32)C(OC)C1OP(=O)(O)OC[C@H]1O[C@@H](n2cnc3c(=O)[nH]c(N)nc32)C(O)C1O (some centres unmarked) [Compound 11] — higher, 2.94
- COC1C(OP(=O)(O)OC[C@H]2O[C@@H](n3cnc4c(=O)[nH]c(N)nc43)C(O)C2O)[C@@H](COP(=O)(O)OP(=O)(O)OP(=O)(O)/C=C/[C@H]2O[C@@H](n3c[n+](C)c4c(=O)[nH]c(N)nc43)CC2OC)O[C@H]1n1cnc2c(N)ncnc21 (some centres unmarked) [Compound 13] — higher, 2.53
- COC1[C@@H](OP(=O)(O)/C=C/[C@H]2O[C@@H](n3cnc4c(=O)[nH]c(N)nc43)C(O)[C@H]2O)[C@@H](/C=C\P(=O)(O)OP(=O)(O)OP(=O)(O)/C=C\[C@H]2O[C@@H](n3c[n+](C)c4c(=O)[nH]c(N)nc43)[C@@H](O)C2O)O[C@H]1n1cnc2c(N)ncnc21 (some centres unmarked) [Example 7] — lower, 0.54
- COC1C(OP(=O)(O)/C=C/[C@H]2O[C@@H](n3cnc4c(=O)[nH]c(N)nc43)C(O)C2O)[C@@H](COP(=O)(O)OP(=O)(O)OP(=O)(O)OC[C@H]2O[C@@H](n3c[n+](C)c4c(=O)[nH]c(N)nc43)C(O)C2O)O[C@H]1n1cnc2c(N)ncnc21 (some centres unmarked) [Example 1] — higher, 3.16
- COC1[C@@H](OP(=O)(O)/C=C/[C@H]2O[C@@H](n3cnc4c(=O)[nH]c(N)nc43)C(O)[C@H]2O)[C@@H](COP(=O)(O)OP(=O)(O)OP(=O)(O)/C=C\[C@H]2O[C@@H](n3c[n+](C)c4c(=O)[nH]c(N)nc43)[C@@H](O)C2O)O[C@H]1n1cnc2c(N)ncnc21 (some centres unmarked) [Example 4] — lower, 1.41
- COC1[C@@H](OP(=O)(O)OC[C@H]2O[C@@H](n3cnc4c(=O)[nH]c(N)nc43)C(O)[C@H]2O)[C@@H](/C=C\P(=O)(O)OP(=O)(O)OP(=O)(O)/C=C\[C@H]2O[C@@H](n3c[n+](C)c4c(=O)[nH]c(N)nc43)[C@@H](O)C2O)O[C@H]1n1cnc2c(N)ncnc21 (some centres unmarked) [Example 5] — lower, 1.36
